{
  "source": "PubChem BioAssay AID651820",
  "about": "(National Center for Advancing Translational Sciences (NCATS), 2012)",
  "note": "“And” between values parts separate entries of the source, which are not always exact repeats. Equal values may be shown once. Hit rate of the full screen: of about 340,000 compounds, about 12,000 (3.5%) were called active. This list was built around the results that the source calls inconclusive (neither active nor inactive); the mix of calls is not that of the screen. The call rests on the fitted dose curve; in most records, active means well fitted inhibition curve with a large enough effect; inconclusive means small, poorly fitted or top-dose-only effect, or another doubt; inactive means no such curve, though single readings can be large or run the other way. No potency is given beside an inconclusive call; the fits are too rough.",
  "data": [
    {"assay": "qHTS Assay for Inhibitors of Hepatitis C Virus (HCV); on activity change, negative = inhibition: on the % scale 0 is the no-effect control and ±100 the full control effect; on potency: tags describe the fitted curve by direction and shape", "details": "Huh7.5.1 HCVcc-Cre (HCVcc is cell-culture hepatitis C virus) infection, luciferase reporter, 44 h; activity change, negative = inhibition: at 41.8 µM (top of the series) unless noted", "description": "Hepatitis C virus (HCV) infects about 200 million people in the world. Many infected people progress to chronic liver disease including cirrhosis with a risk of developing liver cancer. To date, there is no effective vaccine for hepatitis C. Current therapy based on interferon is only effective in about half of the patients and is associated with significant adverse effects. The fraction of people with HCV who can complete a successful treatment is estimated to be no more than 10 percent. Recent development of direct-acting antivirals against HCV, such as protease and polymerase inhibitors, is promising but still requires combination with peginterferon and ribavirin for maximal efficacy. In addition, these agents are associated with high rate of resistance and many have significant side effects. Due to the lack of a culture system for infectious HCV, the search for new HCV drugs has been greatly hampered. […] High-throughput screening (HTS) with an infectious HCV system would cover the complete spectrum of potentially druggable targets in all stages of HCV lifecycle, and would have more biological relevance than other cell-based assays. Moreover, targeting several key processes in the viral life cycle may not only increase antiviral efficacy; more importantly, it may also reduce the capacity of the virus to develop resistance to the compound. The goal of this project is to identify novel HCV inhibitors as new therapies for hepatitis C, using a highly sensitive and specific assay platform which is based on a HCV infectious cell culture system established in the laboratory and adapted for high-throughput HCV drug screen. NIH Chemical Genomics Center [NCGC] NIH Molecular Libraries Probe Centers Network [MLPCN] MLPCN Grant: MH095511 Assay Submitter (PI): Jake Liang, NIDDK\nThe assay will start with plating 1,000 cells/well in 3 µL volume and culture for 4 h. Then 23 nL of compounds from the library collection will be added to each well, followed by adding 2.5 µL of HCVcc-Cre virus (~ 0.5 moi) and further cultured for 44 h before the luciferase assay. A volume of 4.5 µL luciferase substrates will be added to each well and the plates will be incubated at room temperature for 15 min. and then read for 15 sec. for the luciferase activity", "values": [
      {"compound": "CC1Sc2ccc(C(=O)N3CCCC(C(F)(F)F)C3)cc2NC1=O", "note": "(stereo not drawn)", "activity change, negative = inhibition": "inconclusive: -47.8% [inhibitor]"},
      {"compound": "Cc1ccc(-n2cc(CNCCCn3ccnc3C)c(-c3ccc(F)cc3)n2)cc1", "Potency": "inconclusive [inhibitor, single point]"},
      {"compound": "Cc1ccc(C)c(NC(=S)NCCSc2ccc(Cl)cc2)c1", "Potency": "inconclusive [inhibitor, single point]"},
      {"compound": "O=C(CSc1nc2ccccc2c(=O)n1Cc1ccccc1)NCc1ccco1", "Potency": "inconclusive [inhibitor, single point]"},
      {"compound": "COC(=O)c1ccccc1NC(=S)N(Cc1ccc2c(c1)OCO2)Cc1cc2cc(OC)ccc2[nH]c1=O", "Potency": "active: 11.2 µM"},
      {"compound": "Cc1sc(NC(=O)c2ccco2)c(C(c2cccnc2)N2CCN(c3ccc(F)cc3)CC2)c1C", "note": "(stereo not drawn)", "Potency": "active: 5.01 µM and active: 11.2 µM"},
      {"compound": "COc1ccc(OC)c(-c2nc3cc4ccccc4cc3nc2-c2ccccc2)c1", "Potency": "inconclusive [inhibitor, single point]"},
      {"compound": "CCN(c1ccc(NC(=O)c2ccc(N3CCCC3=O)cc2)cc1)C(C)C", "Potency": "inconclusive [inhibitor, full curve]"},
      {"compound": "CCN1CCN(c2ccc(S(=O)(=O)N3CCCCC3)cc2NC(=O)COc2cc(C)ccc2Cl)CC1", "Potency": "inconclusive [inhibitor, partial curve]"},
      {"compound": "CCc1ccc(OCC(=O)NNC(=O)CSc2ncnc3sc(C)c(C)c23)cc1", "Potency": "inconclusive [inhibitor, partial curve]"},
      {"compound": "CC(C)Oc1ccc(CCC(=O)N/N=C/c2ccncc2)cc1", "Potency": "inactive"},
      {"compound": "Cc1c(C(=O)OCC(=O)Nc2cccc(S(N)(=O)=O)c2)oc2c1ccc1ccccc12", "Potency": "inconclusive [inhibitor, single point]"},
      {"compound": "CCCC(=O)N1N=C(c2ccccc2)CC1c1cn(C)c2ccccc12", "note": "(stereo not drawn)", "Potency": "inactive"},
      {"compound": "CC(=O)OC1CC(OC2C(O)CC(OC3C(O)CC(OC4CCC5(C)C(CCC6C5CCC5(C)C(C7=CC(=O)OC7)C(O)CC65O)C4)OC3C)OC2C)OC(C)C1OC1OC(CO)C(O)C(O)C1O", "note": "(stereo not drawn)", "Potency": "inconclusive [inhibitor, full curve]"},
      {"compound": "COc1ccc(-c2nn(C)c(=O)c3ccccc23)cc1NC(=O)COc1ccccc1", "Potency": "active: 10 µM"},
      {"compound": "CCOc1ccc(C(F)(F)F)cc1NC(C)=O", "Potency": "inconclusive [inhibitor, full curve]"},
      {"compound": "COc1cc(C(=O)N/N=C/c2ccc3c(c2)c2ccccc2n3C)ccc1O", "Potency": "inconclusive [inhibitor, partial curve, poor fit]"},
      {"compound": "O=C(Cn1cc([N+](=O)[O-])cn1)NCc1ccccc1", "Potency": "inactive"},
      {"compound": "CCCN(CC(=O)Nc1ccccc1C)C(=O)c1cnc(C)cn1", "Potency": "inactive"},
      {"compound": "COc1ccc(/C=N/N2CCN(Cc3ccc(C)cc3)CC2)cc1Br", "Potency": "inconclusive [inhibitor, partial curve]"},
      {"compound": "COC(=O)C1=C(c2ccc(F)cc2OCc2ccccc2)C[C@@H]2CC[C@H]1N2C(=O)NCc1ccc(Br)cc1", "Potency": "inconclusive [inhibitor, partial curve]"},
      {"compound": "CN(C)c1ccc(CN(CC2CCCO2)C(=O)c2cc3ccccc3o2)cc1", "note": "(stereo not drawn)", "Potency": "inconclusive [inhibitor, partial curve, poor fit]"},
      {"compound": "Cc1ccc(-n2c(C)cc(C=C3C(=O)N(C)C(=O)N(C)C3=O)c2C)cc1", "Potency": "inactive"},
      {"compound": "O=C(Nc1ccc(Cl)cc1)Nc1nnc(Cc2ccc([N+](=O)[O-])cc2)s1", "Potency": "inactive"},
      {"compound": "COc1ccc(/C=N/NC(=O)c2ccc(NC(=O)c3ccccc3Br)cc2)cc1", "Potency": "inconclusive [inhibitor, single point]"},
      {"compound": "C=CCSc1cc(C)nc2c(-c3ccccc3)c(C)nn12", "Potency": "inconclusive [inhibitor, partial curve]"},
      {"compound": "COc1ccccc1CNC(=O)c1ccc(OC(F)F)c(OC)c1", "Potency": "inconclusive [inhibitor, full curve]"},
      {"compound": "O=C(c1ccc(NS(=O)(=O)c2ccc(F)cc2)cc1)N1CCN(c2ccccc2O)CC1", "Potency": "inconclusive [inhibitor, single point]"},
      {"compound": "COc1cc2[nH]c(C(=O)NCC3CCCO3)cc2c(OC)c1OC", "note": "(stereo not drawn)", "Potency": "inconclusive [inhibitor, single point]"},
      {"compound": "Cc1ccc(NC(=O)C2CC(=O)N(c3ccccc3Cl)C2)cc1S(=O)(=O)N1CCOCC1", "note": "(stereo not drawn)", "Potency": "inconclusive [inhibitor, full curve, poor fit]"},
      {"compound": "Nc1nonc1-n1nnc(C(=O)N/N=C/c2ccccc2Br)c1CN1CCCC1", "Potency": "inactive"},
      {"compound": "CCN(CC)CCn1c(=O)n(-c2ccc(Cl)cc2)c(=O)c2c3c(sc21)CN(C)CC3", "Potency": "active: 3.98 µM"},
      {"compound": "CCOC(=O)c1c(NC(=O)COC)sc2c1CCCC2", "Potency": "inconclusive [inhibitor, full curve]"},
      {"compound": "CN(c1ccccc1)S(=O)(=O)c1ccc(C(=O)Nc2nnc(C3CC3)o2)cc1", "Potency": "inactive"},
      {"compound": "O=C(c1ccccc1)N1CCC(O)(c2ccc3c(c2)OCO3)CC1", "Potency": "inactive"},
      {"compound": "COc1ccccc1C1C2=C(CC(C)(C)CC2=O)N(CC(=O)O)C2=C1C(=O)CC(C)(C)C2", "Potency": "inconclusive [inhibitor, single point]"},
      {"compound": "O=C(CCCC(=O)NCC1CCCO1)NCC1CCCO1", "note": "(stereo not drawn)", "Potency": "inactive"},
      {"compound": "CNC(=O)CC12CC3CC(CC(C3)C1)C2", "Potency": "inactive"},
      {"compound": "COc1cc(C2CC(=O)N3CN(Cc4ccco4)CSC3=C2C#N)ccc1OCc1ccccc1", "note": "(stereo not drawn)", "Potency": "inconclusive [inhibitor, single point]"},
      {"compound": "CC1CCN(C(=O)CCl)CC1", "Potency": "inactive"},
      {"compound": "CCCOc1ccc2oc(=O)c3c(c2c1)CCCN3C(=O)CN1CCN(C(=O)c2ccco2)CC1", "Potency": "inactive"},
      {"compound": "CN(C(=O)COC(=O)c1ccccc1Cc1ccccc1)c1c(N)n(Cc2ccccc2)c(=O)[nH]c1=O", "Potency": "inconclusive [inhibitor, partial curve]"},
      {"compound": "CCS(=O)(=O)N1CCN(c2ccc([N+](=O)[O-])c(N3CCOCC3)c2)CC1", "Potency": "inactive"},
      {"compound": "Cn1c(=O)c([N+](=O)[O-])c(Cl)c2ccccc21", "Potency": "active: 7.94 µM"},
      {"compound": "O=C(Cn1cc([N+](=O)[O-])cn1)NCC1CCCO1", "note": "(stereo not drawn)", "Potency": "inactive"},
      {"compound": "COc1ccc(CNC(=O)C(C)N2CCN(c3ccc(C(C)=O)cc3)CC2)cc1", "note": "(stereo not drawn)", "Potency": "inactive"},
      {"compound": "COc1cc2c(cc1OC)[C@@H](NC(=O)COc1ccccc1)[C@H](OCc1ccccc1)C2", "Potency": "inconclusive [inhibitor, partial curve]"},
      {"compound": "COc1ccc(S(=O)(=O)N2CCOCC2)cc1C(=O)NCC(c1ccccc1)c1ccccc1", "Potency": "inconclusive [inhibitor, single point]"},
      {"compound": "O=C(c1ccc(-c2ccccc2Cl)o1)N1CCCC(C(F)(F)F)C1", "note": "(stereo not drawn)", "Potency": "inconclusive [inhibitor, partial curve]"},
      {"compound": "CCOC(=O)c1[nH]c2ccc(OC)cc2c1NC(=O)CCN1CCc2ccccc2C1", "Potency": "inconclusive [inhibitor, single point]"},
      {"compound": "CCCC(C(=O)Nc1cccc(S(=O)(=O)N2CCCC2)c1)c1ccccc1", "note": "(stereo not drawn)", "Potency": "inconclusive [inhibitor, single point]"},
      {"compound": "CCN1C(=O)/C(=C\\c2ccco2)C(C(=O)OC)=C1C", "Potency": "active: 12.6 µM"},
      {"compound": "CC1(c2nnc(-c3ccccc3)o2)CC(c2cccc(Cl)c2)=NO1", "note": "(stereo not drawn)", "Potency": "inconclusive [inhibitor, single point]"},
      {"compound": "O=C(Nc1ccccc1Cl)c1cc(S(=O)(=O)N2CCCCC2)ccc1N1CCOCC1", "Potency": "inconclusive [inhibitor, single point]"},
      {"compound": "Clc1ccc(-n2ncc3c(NCc4cccnc4)ncnc32)cc1Cl", "Potency": "inconclusive [inhibitor, full curve]"},
      {"compound": "CCOC(=O)Cc1csc(NS(=O)(=O)c2ccc(Cl)cc2)n1", "Potency": "inactive"},
      {"compound": "C[n+]1c(-c2ccccc2)cc(CCCCc2cc(-c3ccccc3)[n+](C)c(-c3ccccc3)c2)cc1-c1ccccc1", "Potency": "inconclusive [inhibitor, partial curve]"},
      {"compound": "CC(C)Cn1c2c(c(O)c(C(=O)Nc3ccc(F)cc3)c1=O)CCCC2", "Potency": "inconclusive [inhibitor, partial curve]"},
      {"compound": "Cn1cnnc1Sc1cc(N2CCN(S(=O)(=O)c3ccccc3)CC2)ccc1[N+](=O)[O-]", "Potency": "inconclusive [inhibitor, partial curve]"},
      {"compound": "O=C(c1ccc(-c2nc3ccccc3s2)o1)N1CCN(c2ccccc2O)CC1", "Potency": "inconclusive [inhibitor, single point]"},
      {"compound": "COc1cc2[nH]c(=O)n(CCCCCC(=O)N3CC=C(c4ccccc4)CC3)c(=O)c2cc1OC", "Potency": "inconclusive [inhibitor, single point]"},
      {"compound": "CCOC(=O)Cc1c(C)nc2c(-c3ccc(Cl)cc3)c(C)[nH]n2c1=O", "Potency": "inconclusive [inhibitor, single point]"},
      {"compound": "O=C(Nc1cc(C(F)(F)F)ccc1N1CCOCC1)c1ccc(Cl)nc1", "Potency": "inconclusive [inhibitor, single point]"},
      {"compound": "O=C(COc1ncnc2ccc(Br)cc12)Nc1ccc(N2CCOCC2)cc1", "Potency": "inactive"},
      {"compound": "COc1ccccc1Nc1nnc(SCC(=O)NC(=O)Nc2ccc3c(c2)OCCO3)s1", "Potency": "inactive"},
      {"compound": "COc1ccc(N(Cc2ccccc2)S(=O)(=O)c2cccc(C(=O)NC3=NCCS3)c2)cc1", "Potency": "inactive"},
      {"compound": "CC1(C(=O)OCC(=O)Nc2ccccc2)CC1(Cl)Cl", "note": "(stereo not drawn)", "Potency": "inactive"},
      {"compound": "Cc1cc(C(F)(F)F)n2nc(-c3cnn(C)c3C(F)(F)F)cc2n1", "Potency": "inconclusive [inhibitor, single point]"}
    ]}
  ]
}
